Test results: PMC10726135
This is one part of the list. At the low end of the ranking the order means little. The protein was read in a cell extract, so binding may be indirect.

What follows are sequences tested against T1, HNF4alpha2 (COS-7 nuclear extract) (UniProt P41235) (assay: protein-binding microarray). Settings: COS-7 nuclear extract on double-stranded Agilent 4x180k PBM; binding buffer, salt, pH and temperature not given; high values mean tight binding; double strand, one strand shown; sequences stand for … in …GCCTAGGGAGATTAGAGTATCGGTCGA.
T1 sequence: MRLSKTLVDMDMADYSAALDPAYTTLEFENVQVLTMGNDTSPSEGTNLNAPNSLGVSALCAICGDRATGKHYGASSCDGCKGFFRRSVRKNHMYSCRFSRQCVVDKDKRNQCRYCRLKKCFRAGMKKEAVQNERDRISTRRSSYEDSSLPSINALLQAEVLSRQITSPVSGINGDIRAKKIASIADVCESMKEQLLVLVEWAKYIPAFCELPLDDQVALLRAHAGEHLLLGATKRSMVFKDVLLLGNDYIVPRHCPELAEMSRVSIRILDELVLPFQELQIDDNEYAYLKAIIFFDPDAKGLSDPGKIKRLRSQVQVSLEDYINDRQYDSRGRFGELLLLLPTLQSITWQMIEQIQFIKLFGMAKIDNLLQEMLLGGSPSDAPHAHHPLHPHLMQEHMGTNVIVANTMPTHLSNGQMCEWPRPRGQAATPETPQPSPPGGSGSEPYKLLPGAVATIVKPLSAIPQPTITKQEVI

Row | Sequence | binding signal (log2 normalized intensity)
1 | GAGGGGGCGGGGAGAGGGAAGAGTCTTCTC | -1.24
2 | CGTGAGTATTTTTTCAACATATACTTTGAA | 1.53
3 | AATTGAACTGAAATATGAACTGCTGCCTAC | -1.16
4 | TGGAACTGAAGGCAGGAAAGGGCCTCTCAG | -1.18
5 | GTGAAATAGGAGGATTTTATTCAGGTGGCC | 0.161
6 | CTCCCCTTGTCTGATAAGATTCAGAACCCA | 1.54
7 | ATGTCATTTAAGACGAGTGGTTTGAGGTCA | 2.57
8 | ATGATTGCTCTCTACTTGGTGGGAGGAGGG | -1.08
9 | AGGGCACTGGGGATAGAATCAAAGGTCAGG | 3.66
10 | CACAAATCTCCACAAACATACAACCATCAA | -1.22
11 | AGATAATGGATTGGGGGCCATGTCTCAGCC | -0.499
12 | GCAAAGACTCAAATCCAAGCTGGCTGGCTT | -1.14
13 | CAGCTGGAAGGTATTGTCATTATTCCAGCT | -1.2
14 | AACCCCTATGTTTAATGTATAAACCCTGAG | 0.6
15 | AGGCCAGGGGCACTCTCTGTTATCAGACAC | -0.8
16 | ACATCCCACTCAAAGGTCAGGGCTAGGCTG | -1.02
17 | GAAGAGATCAAAGTTCTGTTTGTATAACCC | 2.12
18 | CCCGCCTTTGACACAGGCGACCTTCGCTCG | 5.17
19 | TTGGACTTCAGCCCAGGCTGATTATTCGTT | 1.94
20 | GACAAACAATAGATAGGACAGTGGTCTTTA | -0.166

Row | Sequence | binding signal (log2 normalized intensity)
21 | TTGCCCACCAATGATCAAAGGTTAGTCTTA | 3.63
22 | GGGTTAGGGTTAGGGTAGGGTTAGGGTTAG | 0.856
23 | CCATGAGTACCAGGTCAAAAGTTCAAACTT | 3.8
24 | ACGTGTTTCCAGGCAAGGAATTTGGAATTC | 1.56
25 | TATAGGTGTTTATAAAGTTGGGAAAAGTAA | 0.955
26 | TCCTTGTACCTGCGACTGAGCCCTAAGAAA | -1.1
27 | GTCAAACAAAAGAAAATGTGCCCTTTGGAC | 6.61
28 | CAACGGCTCTGCATATGCCAACAGGTGCTC | -0.653
29 | ACCGGTCTTTCCACTTGGGCTTCCTCATCT | -1.1
30 | TCAGCCGGGGAAGGTGCAGGGCTACTGTGG | -1.08
31 | TCTCAGTAGACTAACGTATGGACTTTCTGA | 2.9
32 | GAATGTGTGCTGGCCTGGTTCCTTCTCAGT | 1.06
33 | TAATCTCCAAGTAACTGAAACTACAAAAGC | -1.18
34 | GGATTGATTAGATAACATCTGGACTTTACA | 3.57
35 | TATCAGTAGGTACGTTTGTGATACACCTTG | 1.69
36 | CTACTATGTGCCAGACACTGCTCTAGGCAT | -1.05
37 | AACTTTGTAACTAACAACTGACCTTGCAGG | 1.43
38 | ATTCTTTCCCCTCCCTTCCACCTTTGCCCT | 6.19
39 | TGTCAGGAACAACTTCGGGAATCTGACCTT | 3.77
40 | ATCAGGAGACTGGAGAGACCAAAGGGTGAA | 0.37
